Laboratory results as given in PubChem BioAssay (NCI).
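Results reflect a 48-hour exposure of cells in 96-well plates to compound at five concentrations. GI50 marks 50% less growth. Definition used: TGI = concentration required for complete inhibition of growth.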 Square brackets hold non-standard residues; d marks the D form. Peptide text beside a SMILES is read from it. * marks the point of attachment. Decanoyl = CCCCCCCCCC(=O)*; Leu(ol) = CC(C)C[C@H](N)CO; Iva = CC[C@](C)(N)C(=O)O; Aib = CC(C)(N)C(=O)O

System: NCI-H322M lung
Assay: NCI-60 cell line screen, 48 h

| Compound | GI50 [nM] | TGI [µM] |
| --- | --- | --- |
| Oc1ccc(CSc2nnc(-c3ccc(Cl)cc3)n2-c2ccccc2)c2cccnc12 | 1060 | > 100 |
| C#Cc1ccc(NC(=O)c2ccc(/C=C/C(=O)c3nccn3C)cc2)c(F)c1 | 1410 | > 50 |
| CCOc1ccc(C(=O)Nc2ncc(Cc3ccc(F)cc3)s2)cc1 | 575 | > 100 |
| CCCCCCCCCC(=O)NC(C)(C)C(=O)N1CCC[C@H]1C(=O)N[C@@H](CC(C)C)C(=O)N[C@@](C)(CC)C(=O)N[C@@H](CCC(N)=O)C(=O)N[C@H](CCC(N)=O)C(=O)NC(C)(C)C(=O)NC(C)(C)C(=O)N[C@@H](CCC(N)=O)C(=O)N[C@H](CC(C)C)C(=O)N[C@H](CO)CC(C)C (Decanoyl-[Aib]PL[Iva]Q[dQ][Aib][Aib]Q[dL][Leu(ol)]) | 1740 | 3.31 |
